Data taken from paper PMC4336329 (PLoS ONE, 2015).
Out of some 310,000 compounds screened, about 14,000 (4.5%) showed an effect of 50% or more. Effects have a minus sign here. The list shows a part of the results.

Each molecule was assayed against human ether-à-go-go-related gene (hERG) potassium channel (human, UniProt Q12809) (assay: primary screen, population patch clamp on CHO cells stably expressing hERG).
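Further: peak tail current of the secondary pulse compared with the same well before compound.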

Sequence of human ether-à-go-go-related gene (hERG) potassium channel (Q12809 whole entry, looked up): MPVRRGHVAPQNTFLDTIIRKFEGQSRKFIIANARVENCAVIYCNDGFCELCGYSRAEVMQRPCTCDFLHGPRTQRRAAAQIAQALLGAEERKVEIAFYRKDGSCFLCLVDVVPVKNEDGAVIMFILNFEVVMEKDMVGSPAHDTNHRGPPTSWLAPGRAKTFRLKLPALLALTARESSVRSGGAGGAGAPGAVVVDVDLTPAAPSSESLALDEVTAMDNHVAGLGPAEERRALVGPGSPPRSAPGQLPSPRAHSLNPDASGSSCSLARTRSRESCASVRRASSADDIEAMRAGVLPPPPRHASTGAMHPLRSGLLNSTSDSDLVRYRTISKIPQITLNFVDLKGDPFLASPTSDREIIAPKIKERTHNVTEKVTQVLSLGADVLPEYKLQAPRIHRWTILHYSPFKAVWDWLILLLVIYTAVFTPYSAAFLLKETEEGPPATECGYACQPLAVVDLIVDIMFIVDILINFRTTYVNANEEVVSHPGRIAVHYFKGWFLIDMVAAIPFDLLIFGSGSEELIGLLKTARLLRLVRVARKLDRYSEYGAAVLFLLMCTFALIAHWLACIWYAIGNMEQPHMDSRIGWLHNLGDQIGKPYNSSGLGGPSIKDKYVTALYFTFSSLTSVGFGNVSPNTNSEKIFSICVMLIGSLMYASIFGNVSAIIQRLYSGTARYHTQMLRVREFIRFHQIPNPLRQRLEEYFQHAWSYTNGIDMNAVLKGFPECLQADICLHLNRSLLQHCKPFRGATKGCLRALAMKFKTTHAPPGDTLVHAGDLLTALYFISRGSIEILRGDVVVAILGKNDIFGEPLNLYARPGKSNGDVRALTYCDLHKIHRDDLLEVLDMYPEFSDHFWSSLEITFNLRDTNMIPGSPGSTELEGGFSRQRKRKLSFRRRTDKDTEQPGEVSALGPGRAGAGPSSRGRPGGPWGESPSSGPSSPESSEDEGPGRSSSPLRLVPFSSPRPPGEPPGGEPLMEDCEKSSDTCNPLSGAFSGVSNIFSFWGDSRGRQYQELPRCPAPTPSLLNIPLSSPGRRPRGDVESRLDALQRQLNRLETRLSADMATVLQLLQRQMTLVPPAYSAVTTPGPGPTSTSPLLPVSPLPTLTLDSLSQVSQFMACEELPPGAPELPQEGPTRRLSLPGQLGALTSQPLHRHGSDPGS

| Structure (SMILES) | hERG current change (%, negative = inhibition) at 10uM |
| --- | --- |
| COc1ccc(-n2nc3c(c2NC(=O)COc2ccccc2)CS(=O)(=O)C3)cc1 | 4.95% |
| CC1(C)CC(=O)C(C=NCCN2CCN(C(=O)c3ccccc3)CC2)=C(O)C1 | 2.78% |
| Cc1ccccc1C(=O)NC(=S)N(C)CCc1ccccn1 | 4.3% |
| O=C(NCCCN1CCCC1=O)Nc1ccc(Cl)cc1Cl | 1.82% |
| COCCCNC(=O)Cn1nc(-c2ccccc2OC)ccc1=O | 18% |
| Cc1cc(Cn2nnc3ccccc32)c(O)c(C(C)(C)C)c1 | 19.3% |
| C#CCOCCOCCOCCNc1nc(N2CCN(C(=O)Cn3cc(CC(C)O)nn3)CC2)nc(N2CCN(C(=O)[C@H](CCCC[NH3+])n3cc(CCC(=O)O)nn3)CC2)n1.[Cl-] (stereo partly shown) | 4.96% |
| COCCCN(C(=O)c1ccccc1)c1nc(-c2ccc(OC)cc2)cs1 | 18.3% |
| O=C(Cn1nc(Cl)nc1Cl)c1ccc([N+](=O)[O-])cc1 | 1.69% |
| O=S(=O)(c1ccc(Cl)cc1)N1CCCN(c2ccc(C(F)(F)F)cn2)CC1 | -23.3% |
| CCOc1ccc2[nH]c(=O)c(CN(Cc3ccccc3)C(=O)N3CCCC3)cc2c1 | 9.28% |
| CN(C)c1ccc(C(=O)Nc2ccc(CN3CCS(=O)(=O)CC3)cc2)cc1 | -4.98% |
| CC(=O)Cn1ncc(N2CCOCC2)cc1=O | 18.6% |
| Cc1ccc(NC(=S)NNC(=O)CSc2nnc(-c3ccc(Cl)cc3)n2C2CCCCC2)cc1 | -2.98% |
| Cc1cc(C(=O)COC(=O)CNC(=O)c2ccc(Cl)c(Cl)c2)c(C)n1Cc1ccco1 | 20.7% |
| CS(=O)(=O)N1CCN=C1SCc1ccccc1 | -0.663% |
| O=C(Nc1nc2ccccc2[nH]1)c1ccccc1F | -7.16% |
| Oc1c(N=NC(=S)Nc2ccccc2F)c2ccccc2n1Cc1cccc(Cl)c1 | 13.6% |
| COC(=O)C1=C(c2cccc(C#N)c2)C[C@@H]2CC[C@H]1N2C(=O)NCCCOC(C)C | 5.51% |
| Cc1ccc(NC(=O)NCCCCc2ccccc2)cc1 | 21.8% |
| CC(=O)Oc1ccc(-c2cccc(C(=O)NCC(=O)O)c2)cc1 | 17.9% |
| COc1ccc(-c2cc(C(=O)N3CCN(c4ccccn4)CC3)c3ccccc3n2)cc1 | -5.51% |

| Structure (SMILES) | hERG current change (%, negative = inhibition) at 10uM |
| --- | --- |
| COc1cccc(C(=O)NCCS(=O)(=O)NCc2cccs2)c1 | -10.6% |
| COC(=O)c1[nH]c2cc(OC)ccc2c1NC(=O)c1nonc1C | -0.509% |
| CN(CCOc1ccccc1)CC(=O)Nc1cccc(C#N)c1 | -8.09% |
| CCC(=O)NC(=S)Nc1ccc(-c2nc3ccc(C)cc3s2)cc1 | 11.4% |
| COc1ccc(NC(=O)/C(C#N)=C\c2ccc(Br)o2)cc1 | 4.52% |
| Cc1cnc(NC(=O)CSc2nnc(COc3c(C)cccc3C)o2)s1 | 11.6% |
| Cc1ccc(OCCCCn2cnc3ccccc32)cc1.Cl | -49% |
| O=C(CN(Cc1ccc(Cl)cc1)C(=O)CNS(=O)(=O)c1ccccc1)NCC1CCCO1 (stereo not shown) | -2.18% |
| O=C(O)COc1ccc(/C=N/NC(=O)C2CCCN2S(=O)(=O)c2ccc(Cl)cc2)cc1 (stereo not shown) | 17.9% |
| CCOC(=O)CNC(=O)COc1ccc(Cl)cc1Br | -19.5% |
| CCOc1ccccc1C(=O)N1CCC(C(=O)c2ccc(F)cc2)CC1 | -25.2% |
| COc1ccc(NC(=O)c2ccco2)cc1S(=O)(=O)N1CCOCC1 | 10.8% |
| CCC(=O)Nc1nnc(Sc2ccc(N(C)C)cc2)s1 | -9.98% |
| N#CCC(=O)Nc1ccccc1C(=O)O | -6.59% |
| CCOC(=O)c1sc(NC(=O)C2CC=CCC2C(=O)O)nc1C (stereo not shown) | 7.39% |
| CSc1nccc(N2CCN(c3ccc(F)cc3)CC2)n1 | -35% |
| CC(=O)Oc1ccc2c(=O)c(-c3ccccc3)c(C)oc2c1 | 16.2% |
| O=C(COc1ncnc2ccccc12)N1CCN(c2ccccc2)CC1 | -4.07% |
| COc1ccc(CCNC(=O)c2cc3cccc(OC)c3oc2=O)cc1OC | 12.1% |
| O=C(CN1CCC(NC(=O)c2cccc(F)c2)CC1)NCc1ccccc1F | -20.2% |
| Cc1ccn2cc(CCNC(=O)CC3CCCCC3)nc2c1 | -32.3% |
| Cn1cnnc1Sc1ccc(S(C)(=O)=O)cc1[N+](=O)[O-] | 13% |

| Structure (SMILES) | hERG current change (%, negative = inhibition) at 10uM |
| --- | --- |
| O=C(Nc1ccccc1)OCc1cc(-c2ccccc2Cl)on1 | 6.09% |
| COc1ccc(C(=O)NCC(=O)N/N=C/c2ccco2)cc1OC | 25.9% |
| COc1cccc(-n2ccnc2SCC(=O)NCc2ccccc2)c1 | 1.75% |
| CCOC(=O)C(=NCCCN(C)C)NNc1cc(C(F)(F)F)ccc1Cl | -18.5% |
| O=c1cnn(Cc2ccc(F)cc2)c2ccccc12 | -13.6% |
| CCOC(=O)c1cc(C)sc1NC(=O)C(c1ccccc1)c1ccccc1 | 14.5% |
| Cc1ccc(/C=C/C(=O)Nc2cc(S(=O)(=O)N3CCCCCC3)ccc2OCC(F)(F)F)o1 | -45.3% |
| Cc1cc(C2(c3cc(C)c(NC(=O)CN4CCOCC4)c(C)c3)CCCCC2)cc(C)c1NC(=O)CN1CCOCC1 | 2.19% |
| CCc1ccc(C(=O)CCC2CCCCC2=O)cc1 (stereo not shown) | -5.71% |
| CC(C)c1ccc(CN2CCC(Oc3ccc(C(=O)N4CCCC4)cc3)CC2)cc1 | -71.6% |
| COC(=O)c1ccc(C(=O)OC)c(NC(=O)CN2CCN(c3ccccc3OC)CC2)c1 | -6.1% |
| CC12CCC(C(=O)N(CC(=O)O)C1=O)C2(C)C (stereo not shown) | 24.6% |
| O=c1cc(CSc2nnc(NC3CCCCC3)s2)nc2sccn12 | -28.1% |
| COCCN1C(=O)N[C@@H](c2ccccc2)[C@H](C(C)=O)[C@H]1C | 3.61% |
| COc1cc(C(=O)N/C(=C\c2cn(S(=O)(=O)N(C)C)c3ccccc23)C(=O)N2CCCC2)cc(OC)c1OC | 10.9% |
| Cc1cc(C(=O)OCC(=O)NC(C)c2ccc(F)cc2)c(C)o1 (stereo not shown) | 11.2% |
| Cc1ccc(NC(=O)CN(C)C(=O)Cn2c(=O)oc3ccccc32)cc1 | -1.09% |
| O=C(COc1ccccc1)N(Cc1cccc(F)c1)C1CCS(=O)(=O)C1 (stereo not shown) | -15.5% |
| Cc1ccc(-c2nc(SC(C)C(=O)c3c(N)n(C)c(=O)n(C)c3=O)n[nH]2)cc1 (stereo not shown) | 4.53% |
| CCOc1ccc(NC(=O)C2CCN(S(C)(=O)=O)CC2)cc1 | 22.2% |
| O=C(Cc1ccccc1)Nc1ccc(NC(=O)c2cccs2)cc1 | 17.5% |
| CN1CN(C)C(c2ccncc2)=C1c1ccncc1 | 19.5% |

| Structure (SMILES) | hERG current change (%, negative = inhibition) at 10uM |
| --- | --- |
| Cc1ccc(-c2cccc(C3CC=CC4C3C(=O)N(Cc3ccccc3)C4c3ccc4ccccc4c3)c2)cc1 (stereo not shown) | 18.8% |
| Cc1ccc(C(=O)O)cc1N=Nc1c(O)[nH]c(=O)[nH]c1=O | 25.4% |
| O=C(O)/C(=C/c1ccco1)c1ccccc1 | 33% |
| O=C(Nc1nc(-c2nc3ccccc3s2)cs1)c1ccc(S(=O)(=O)N2CCOCC2)cc1 | -4.79% |
| CC(C)c1nc(SCc2ccccn2)c2c(=O)n(C)c(=O)n(C)c2n1 | 5.32% |
| CCOc1ccc(C(=O)C(C)=O)c(OCC)c1 | 9.68% |
| COc1ccc2c(c1OC)C(=O)N1C2SC(C)(C)[C@H]1C(=O)NCCCOC(C)C (stereo partly shown) | 24.2% |
| CC1CCN(CC(CS(=O)(=O)c2ccc([N+](=O)[O-])cc2)N2CCC(C)CC2)CC1 (stereo not shown) | -62.1% |
| Nc1nn2c(-c3ccccc3)cc(=O)[nH]c2c1N=Nc1ccc(O)cc1 | -4.22% |
| O=c1[nH]c(CN2CCN(S(=O)(=O)/C=C/c3ccccc3)CC2)nc2ccccc12 | -66.5% |
| CCCc1nnc(NC(=O)CCS(=O)(=O)Cc2ccccc2)s1 | -18.6% |
| COc1cc2c(cc1OC)CC1(CCCCC1)N=C2.Cl | -26.2% |
| COCCn1c(SCC(=O)N(C(C)C)C(C)C)nnc1-c1cc2ccccc2cc1O | -15.8% |
| CC1CCN(S(=O)(=O)c2ccc3c(c2)c(=O)c(C(=O)NCc2cccs2)cn3C)CC1 | -4.13% |
| CS(=O)(=O)Nc1ccc(Cc2ccc(NS(C)(=O)=O)cc2)cc1 | -12% |
| O=C(O)c1cc(S(=O)(=O)Nc2ccc(OCc3ccccc3)cc2)ccc1Br | 15% |
| COC(=O)c1ccc(N(CC(=O)NCC2CCCO2)C(=O)CCC(=O)Nc2cc(C)on2)cc1 (stereo not shown) | 11.9% |
| S=C(NCCC1=CCCCC1)NCc1ccco1 | 11.6% |
| CCOC(=O)N1CCN(C(=O)c2ccc(N3CCCC3=O)cc2)CC1 | 14.8% |
| CCN(CC)CC(=O)Nc1sc2c(c1C(=O)c1ccccc1OC)CCC2 | 17.1% |
| COc1ccc(-c2ccnc3c(C#N)cnn23)cc1 | 6.06% |
| O=C(CSc1nnc(COc2ccccc2)n1-c1ccccc1)c1ccccc1 | 11.2% |
